Experimental data: the supplement of paper PMC8728848
Some of the results follow.

Legend:
Assay in all cases: glycan array binding signal (z-score within array); higher = stronger binding
Conditions in all cases: glycan notation: IUPAC condensed, linker removed
[1] = target: Gal(b1-3)GlcNAc(b1-6)[Gal(b1-3)]GalNAc
Method in brief: (§1)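 The binding signal is a Z-score computed within each array and averaged over linkers. Arrays of the same protein sequence at different concentrations or buffers were also averaged together. Data originate from 3228 arrays in the Consortium for Functional Glycomics database, kept only where the protein sequence was available.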

Gal(b1-3)GlcNAc6S = target: Gal(b1-3)GlcNAc6S
Method in brief: as §1

[2] = target: Gal(b1-3)[Fuc(a1-4)]GlcNAc
Method in brief: as §1

[3] = target: Gal(b1-3)[Fuc(a1-4)]GlcNAc(b1-2)Man
Method in brief: as §1

[4] = target: Gal(b1-3)[Fuc(a1-4)]GlcNAc(b1-2)Man(a1-3)[Gal(b1-3)[Fuc(a1-4)]GlcNAc(b1-2)Man(a1-6)]Man(b1-4)GlcNAc(b1-4)[Fuc(a1-6)]GlcNAc
Method in brief: as §1

[5] = target: Gal(b1-3)[Fuc(a1-4)]GlcNAc(b1-3)Gal(b1-3)[Fuc(a1-4)]GlcNAc
Method in brief: as §1

[6] = target: Gal(b1-3)[Fuc(a1-4)]GlcNAc(b1-3)Gal(b1-4)[Fuc(a1-3)]GlcNAc
Method in brief: as §1

[7] = target: Gal(b1-3)[Fuc(a1-4)]GlcNAc(b1-6)GalNAc
Method in brief: as §1

[8] = target: Gal(b1-3)[GlcNAc(b1-6)]GalNAc
Method in brief: as §1

[9] = target: Gal(b1-3)[Neu5Ac(a2-6)]GalNAc
Method in brief: as §1

[10] = target: Gal(b1-3)[Neu5Ac(a2-6)]GlcNAc(b1-4)Gal(b1-4)Glc
Method in brief: as §1

[11] = target: Gal(b1-3)[Neu5Ac(b2-6)]GalNAc
Method in brief: as §1

Gal(b1-4)Gal = target: Gal(b1-4)Gal
Method in brief: as §1

[12] = target: Gal(b1-4)GalNAc(a1-3)[Fuc(a1-2)]Gal(b1-4)GlcNAc
Method in brief: as §1

[13] = target: Gal(b1-4)GalNAc(b1-3)[Fuc(a1-2)]Gal(b1-4)GlcNAc
Method in brief: as §1

Gal(b1-4)Glc = target: Gal(b1-4)Glc
Method in brief: as §1

Gal(b1-4)Glc6S = target: Gal(b1-4)Glc6S
Method in brief: as §1

Gal(b1-4)GlcNAc = target: Gal(b1-4)GlcNAc
Method in brief: as §1

[14] = target: Gal(b1-4)GlcNAc(a1-6)Gal(b1-4)GlcNAc
Method in brief: as §1

Gal(b1-4)GlcNAc(b1-2)Man = target: Gal(b1-4)GlcNAc(b1-2)Man
Method in brief: as §1

[15] = target: Gal(b1-4)GlcNAc(b1-2)Man(a1-3)Man(b1-4)GlcNAc(b1-4)GlcNAc
Method in brief: as §1

[16] = target: Gal(b1-4)GlcNAc(b1-2)Man(a1-3)[Gal(b1-4)GlcNAc(b1-2)Man(a1-6)]Man(b1-4)GlcNAc(b1-4)GlcNAc
Method in brief: as §1

[17] = target: Gal(b1-4)GlcNAc(b1-2)Man(a1-3)[Gal(b1-4)GlcNAc(b1-2)Man(a1-6)]Man(b1-4)GlcNAc(b1-4)[Fuc(a1-6)]GlcNAc
Method in brief: as §1

[18] = target: Gal(b1-4)GlcNAc(b1-2)Man(a1-3)[Gal(b1-4)GlcNAc(b1-2)Man(a1-6)][Gal(b1-4)GlcNAc(b1-4)]Man(b1-4)GlcNAc(b1-4)[Fuc(a1-6)]GlcNAc
Method in brief: as §1

[19] = target: Gal(b1-4)GlcNAc(b1-2)Man(a1-3)[Gal(b1-4)GlcNAc(b1-2)Man(a1-6)][GlcNAc(b1-4)]Man(b1-4)GlcNAc(b1-4)[Fuc(a1-6)]GlcNAc
Method in brief: as §1

[20] = target: Gal(b1-4)GlcNAc(b1-2)Man(a1-3)[GlcNAc(b1-2)Man(a1-6)]Man(b1-4)GlcNAc(b1-4)GlcNAc
Method in brief: as §1

[21] = target: Gal(b1-4)GlcNAc(b1-2)Man(a1-3)[GlcNAc(b1-4)][Gal(b1-4)GlcNAc(b1-2)Man(a1-6)]Man(b1-4)GlcNAc(b1-4)GlcNAc
Method in brief: as §1

[22] = target: Gal(b1-4)GlcNAc(b1-2)Man(a1-3)[Man(a1-6)]Man(b1-4)GlcNAc(b1-4)GlcNAc
Method in brief: as §1

[23] = target: Gal(b1-4)GlcNAc(b1-2)Man(a1-6)Man(b1-4)GlcNAc(b1-4)GlcNAc
Method in brief: as §1

[24] = target: Gal(b1-4)GlcNAc(b1-2)Man(a1-6)[GlcNAc(b1-2)Man(a1-3)]Man(b1-4)GlcNAc(b1-4)GlcNAc
Method in brief: as §1

[25] = target: Gal(b1-4)GlcNAc(b1-2)Man(a1-6)[Man(a1-3)]Man(b1-4)GlcNAc(b1-4)GlcNAc
Method in brief: as §1

[26] = target: Gal(b1-4)GlcNAc(b1-2)[Gal(b1-4)GlcNAc(b1-4)]Man(a1-3)[Gal(b1-4)GlcNAc(b1-2)Man(a1-6)]Man(b1-4)GlcNAc(b1-4)GlcNAc
Method in brief: as §1

[27] = target: Gal(b1-4)GlcNAc(b1-2)[Gal(b1-4)GlcNAc(b1-4)]Man(a1-3)[Gal(b1-4)GlcNAc(b1-2)[Gal(b1-4)GlcNAc(b1-6)]Man(a1-6)]Man(b1-4)GlcNAc(b1-4)GlcNAc
Method in brief: as §1

[28] = target: Gal(b1-4)GlcNAc(b1-2)[Gal(b1-4)GlcNAc(b1-4)]Man(a1-3)[GlcNAc(b1-4)][Gal(b1-4)GlcNAc(b1-2)Man(a1-6)]Man(b1-4)GlcNAc(b1-4)GlcNAc
Method in brief: as §1

[29] = target: Gal(b1-4)GlcNAc(b1-2)[Gal(b1-4)GlcNAc(b1-4)]Man(a1-3)[GlcNAc(b1-4)][Gal(b1-4)GlcNAc(b1-2)[Gal(b1-4)GlcNAc(b1-6)]Man(a1-6)]Man(b1-4)GlcNAc(b1-4)GlcNAc
Method in brief: as §1

[30] = target: Gal(b1-4)GlcNAc(b1-2)[Gal(b1-4)GlcNAc(b1-6)]Man(a1-6)[Gal(b1-4)GlcNAc(b1-2)Man(a1-3)]Man(b1-4)GlcNAc(b1-4)GlcNAc
Method in brief: as §1

[31] = target: Gal(b1-4)GlcNAc(b1-2)[Gal(b1-4)GlcNAc(b1-6)]Man(a1-6)[Gal(b1-4)GlcNAc(b1-2)Man(a1-3)]Man(b1-4)GlcNAc(b1-4)[Fuc(a1-6)]GlcNAc
Method in brief: as §1

[32] = target: Gal(b1-4)GlcNAc(b1-2)[Gal(b1-4)GlcNAc(b1-6)]Man(a1-6)[GlcNAc(b1-4)][Gal(b1-4)GlcNAc(b1-2)Man(a1-3)]Man(b1-4)GlcNAc(b1-4)GlcNAc
Method in brief: as §1

[33] = target: Gal(b1-4)GlcNAc(b1-2)[Gal(b1-4)GlcNAc(b1-6)]Man(a1-6)[GlcNAc(b1-4)][Gal(b1-4)GlcNAc(b1-2)[Gal(b1-4)GlcNAc(b1-4)]Man(a1-3)]Man(b1-4)GlcNAc(b1-4)[Fuc(a1-6)]GlcNAc
Method in brief: as §1

[34] = target: Gal(b1-4)GlcNAc(b1-3)Gal(b1-3)GalNAc
Method in brief: as §1

[35] = target: Gal(b1-4)GlcNAc(b1-3)Gal(b1-3)GlcNAc
Method in brief: as §1

[36] = target: Gal(b1-4)GlcNAc(b1-3)Gal(b1-4)Glc
Method in brief: as §1

[37] = target: Gal(b1-4)GlcNAc(b1-3)Gal(b1-4)GlcNAc
Method in brief: as §1

[38] = target: Gal(b1-4)GlcNAc(b1-3)Gal(b1-4)GlcNAc(b1-2)Man(a1-3)[Gal(b1-4)GlcNAc(b1-3)Gal(b1-4)GlcNAc(b1-2)Man(a1-6)]Man(b1-4)GlcNAc(b1-4)GlcNAc
Method in brief: as §1

[39] = target: Gal(b1-4)GlcNAc(b1-3)Gal(b1-4)GlcNAc(b1-2)Man(a1-3)[Gal(b1-4)GlcNAc(b1-3)Gal(b1-4)GlcNAc(b1-2)Man(a1-6)]Man(b1-4)GlcNAc(b1-4)[Fuc(a1-6)]GlcNAc
Method in brief: as §1

B1: Mg3lysM (Mycosphaerella graminicola) (protein)
chain: APQNPPTSCSAAPQPTGTGSPGTVCGSTTFTNYTVKAGDTLGAIAKQYNSGVCDIAKVNGIDNPDYIKPDQVLSIPANCVTPDNTSCVKPVPVITNTCVLGVGSTYTVKSGDSFSAIATSFNITLASLEARNPQIPNYDLIFPGQVINTPLCPNSVCDSIGTYVIESGDIFYNLAQSNNVTVGQLESLNVNVNVTDIHPGDIIILPHNCHNITASA
- glycan array binding signal (z-score) [1]: -0.022
- glycan array binding signal (z-score) (Gal(b1-3)GlcNAc6S): -0.048
- glycan array binding signal (z-score) [2]: -0.067
- glycan array binding signal (z-score) [3]: -0.155
- glycan array binding signal (z-score) [4]: -0.015
- glycan array binding signal (z-score) [5]: -0.091
- glycan array binding signal (z-score) [6]: -0.07
- glycan array binding signal (z-score) [7]: -0.127
- glycan array binding signal (z-score) [8]: 0.021
- glycan array binding signal (z-score) [9]: -0.091
- glycan array binding signal (z-score) [10]: -0.068
- glycan array binding signal (z-score) [11]: -0.03
- glycan array binding signal (z-score) (Gal(b1-4)Gal): -0.148
- glycan array binding signal (z-score) [12]: -0.068
- glycan array binding signal (z-score) [13]: -0.137
- glycan array binding signal (z-score) (Gal(b1-4)Glc): -0.084
- glycan array binding signal (z-score) (Gal(b1-4)Glc6S): -0.028
- glycan array binding signal (z-score) (Gal(b1-4)GlcNAc): -0.075
- glycan array binding signal (z-score) [14]: -0.191
- glycan array binding signal (z-score) (Gal(b1-4)GlcNAc(b1-2)Man): -0.039
- glycan array binding signal (z-score) [15]: -0.065
- glycan array binding signal (z-score) [16]: -0.033
- glycan array binding signal (z-score) [17]: -0.083
- glycan array binding signal (z-score) [18]: -0.121
- glycan array binding signal (z-score) [19]: -0.225
- glycan array binding signal (z-score) [20]: -0.102
- glycan array binding signal (z-score) [21]: -0.082
- glycan array binding signal (z-score) [22]: -0.041
- glycan array binding signal (z-score) [23]: -0.091
- glycan array binding signal (z-score) [24]: -0.074
- glycan array binding signal (z-score) [25]: 0
- glycan array binding signal (z-score) [26]: -0.021
- glycan array binding signal (z-score) [27]: -0.029
- glycan array binding signal (z-score) [28]: -0.065
- glycan array binding signal (z-score) [29]: -0.023
- glycan array binding signal (z-score) [30]: -0.094
- glycan array binding signal (z-score) [31]: -0.096
- glycan array binding signal (z-score) [32]: -0.113
- glycan array binding signal (z-score) [33]: -0.081
- glycan array binding signal (z-score) [34]: -0.133
- glycan array binding signal (z-score) [35]: -0.085
- glycan array binding signal (z-score) [36]: -0.067
- glycan array binding signal (z-score) [37]: -0.09
- glycan array binding signal (z-score) [38]: -0.112
- glycan array binding signal (z-score) [39]: -0.044
